Measurements reported in the supplement of paper PMC4166925.
± gives the standard deviation of the averaged measurements. In all, about 33,000 sequences were measured (“E-score (dimensionless, -0.5 to 0.5)”: median about -0.046, highest 2% from about 0.36 on). Some of the results follow.

Each sequence was assayed on T1, SpTbr T-box DNA-binding domain (GST fusion) (assay: PBM E-score of 8-mer (E-score (dimensionless, -0.5 to 0.5)); Tbr is Tbrain of the sea star Patiria miniata (Pm) or the sea urchin Strongylocentrotus purpuratus (Sp); higher = stronger binding preference; most listed sequences are background and not binding sites). Settings: the construct has about 5 more residues each side.
T1 sequence: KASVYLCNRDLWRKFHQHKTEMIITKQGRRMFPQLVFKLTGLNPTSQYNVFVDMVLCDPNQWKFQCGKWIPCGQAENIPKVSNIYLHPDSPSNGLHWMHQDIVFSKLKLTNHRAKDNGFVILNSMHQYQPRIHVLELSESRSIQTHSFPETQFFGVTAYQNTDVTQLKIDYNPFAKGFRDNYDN
Method in brief: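 Primer extension turned Universal Agilent oligonucleotide arrays double-stranded. They were incubated with 200 nM protein in PBS (pH 7.5); the protein was a GST-fused Tbr T-box DNA-binding domain expressed in BL21 E. coli at 20 °C and purified on glutathione. Every ungapped 8-mer was scored from the scanned, quantified probe intensities, and the Universal PBM Analysis Suite gave each an enrichment E-score averaged over duplicate arrays.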

| Sequence | PBM E-score of 8-mer |
| --- | --- |
| CCGGTTGA | -0.16 ± 0.053 |
| GGCTGATA | -0.226 ± 0.048 |
| AGGAGCGC | 0.0349 ± 0.016 |
| ACGAGCGG | -0.186 ± 0.062 |
| GTACGGAC | -0.212 ± 0.053 |
| GAATTACC | -0.0341 ± 0.024 |
| GGCTGCCC | -0.158 ± 0.031 |
| GCGCCAGC | 0.141 ± 0.077 |
| ACAGGGGG | -0.0508 ± 0.041 |
| AAATGGAT | -0.128 ± 0.018 |
| ATCCCGGA | -0.258 ± 0.033 |
| CAACCAGC | -0.0764 ± 0.038 |
| CGAGTATC | -0.139 ± 0.032 |
| AACAGTAA | 0.0105 ± 0.028 |
| AATCTGCG | -0.0341 ± 0.043 |
| ACTAGAGT | -0.0721 ± 0.018 |
| CCCTTTAC | 0.0367 ± 0.0033 |
| AAAAAGTA | -0.0248 ± 0.024 |
| ACAGCTCT | 0.176 ± 0.0073 |
| ACTGTTAA | 0.261 ± 0.036 |
| CTCTAGAG | -0.203 ± 0.05 |
| ACGCCCGC | 0.163 ± 0.024 |

| Sequence | PBM E-score of 8-mer |
| --- | --- |
| AACTTTCG | 0.00917 ± 0.0092 |
| GATGACAC | 0.402 ± 0.0092 |
| CAACGATG | 0.0119 ± 0.035 |
| AATGGATA | -0.181 ± 0.002 |
| AGGAAAAG | -0.134 ± 0.12 |
| CCCTCTGA | -0.224 ± 0.046 |
| GTCTGTCA | 0.0728 ± 0.055 |
| CATCGTCA | 0.158 ± 0.023 |
| GTGGGCCA | -0.12 ± 0.06 |
| GTTCAGCA | 0.0282 ± 0.015 |
| ATCGAGGC | -0.0694 ± 0.048 |
| ACCTGGTG | 0.234 ± 0.0085 |
| AAAGGAGT | -0.0705 ± 0.082 |
| AATCGCGG | 0.126 ± 0.015 |
| GGTCCAAC | -0.0949 ± 0.035 |
| GACTGAAC | -0.127 ± 0.018 |
| CGTCAGGA | 0.163 ± 0.015 |
| GATGTACA | -0.0336 ± 0.047 |
| CACCTGCC | 0.3954 ± 0.00044 |
| AGATGTAT | -0.0952 ± 0.053 |
| ACAGAATC | 0.0202 ± 0.0069 |
| TATATTAA | -0.135 ± 0.0028 |

| Sequence | PBM E-score of 8-mer |
| --- | --- |
| ACTGCGAC | 0.162 ± 0.037 |
| TAACTCGA | -0.16 ± 0.039 |
| AACTTGTC | 0.355 ± 0.03 |
| CAGTAGCG | 0.213 ± 0.0017 |
| CTAGGTAA | -0.13 ± 0.072 |
| ACCGCTAG | -0.0258 ± 0.036 |
| AAACGAGG | -0.116 ± 0.12 |
| ACACGTGA | 0.283 ± 0.011 |
| AACGCGAT | 0.205 ± 0.019 |
| ATTAGAAT | -0.162 ± 0.029 |
| CGCCAGAG | -0.0471 ± 0.025 |
| CTGCAAAA | 0.0605 ± 0.04 |
| ACGCATTG | 0.127 ± 0.0035 |
| ATTACAGC | 0.0176 ± 0.052 |
| AAAAGATG | -0.153 ± 0.13 |
| CAGAACCA | -0.18 ± 0.05 |
| CCGAGATC | -0.165 ± 0.038 |
| GATCGTAA | -0.0521 ± 0.012 |
| CCCAACTC | -0.0091 ± 0.025 |
| CAAGGTTC | 0.047 ± 0.016 |
| AAAACCTT | -0.132 ± 0.026 |
| GACAAGAA | 0.00972 ± 0.027 |

| Sequence | PBM E-score of 8-mer |
| --- | --- |
| GACGTCGC | 0.08563 ± 0.00018 |
| CATGGGCC | -0.352 ± 0.015 |
| ATATCGGC | -0.104 ± 0.099 |
| CTATCCTC | -0.12 ± 0.074 |
| TACCAGTA | -0.361 ± 0.026 |
| GGAAGTAC | -0.323 ± 0.026 |
| GTGCTGAA | 0.226 ± 0.037 |
| GTCCCGAC | -0.036 ± 0.024 |
| ACCGACGA | 0.121 ± 0.022 |
| CATTAGGA | -0.198 ± 0.02 |
| GGGTGGAA | -0.0683 ± 0.012 |
| GGTCGTAC | -0.127 ± 0.1 |
| TATTAAAA | 0.0261 ± 0.042 |
| GAAGACTC | -0.1295 ± 0.00088 |
| ACCGCGGT | 0.0296 ± 0.04 |
| CCCTTCCG | 0.0125 ± 0.028 |
| ATATATCC | -0.12 ± 0.0036 |
| AGGTAGAT | -0.08012 ± 0.00015 |
| GAGCGGCA | 0.0433 ± 0.066 |
| CAAGCCCC | 0.0302 ± 0.027 |
